Measured values as given in patent publication US10287311B2, “Modified fluorinated nucleoside analogues” (priority 2003, dated 2019).

Key:
[1] = tested on: 1b (Ntat) replicon; assay: microbe, parasite or virus in culture; details: Hepatitis C virus
[2] = tested on: 1b (Btat) replicon; assay: microbe, parasite or virus in culture; details: Hepatitis C virus

| SMILES | EC90 [1] [µM] | EC90 [2] [µM] |
| --- | --- | --- |
| C[C@@]1(F)[C@H](O)[C@@H](CO)O[C@H]1n1ccc(N)nc1=O | 3.8 | 11.5 |
| C[C@@]1(O)[C@H](O)[C@@H](CO)O[C@H]1n1ccc(N)nc1=O [2′-C-methylcytidine, reference compound] | 27.2 | 31.1 |
